Where “and” joins values, the source holds several entries; their conditions need not be identical. Identical values can stand only once. Inconclusive results, whose numbers are uncertain, are shown with a selection of clear calls. Potencies of inconclusive entries are doubtful fits and often do not repeat. Calls of active or inactive are those of the source. Calls follow the shape of the dose curve; as a rule, active = well fitted inhibition curve with a large enough effect in the signal ratio in the repeat runs, with a control signal flat; inconclusive = weak or mixed curves, or effect the other way; inactive = flat fitted curve, though single readings scatter; the % refers to the signal ratio.
target: D(2) dopamine receptor (Homo sapiens) (UniProt P14416); assay: Dopamine D2 receptor (DRD2) small molecule antagonists, cell-based qHTS assay (AID 1963595); conditions: HEK293-DRD2 cAMP HTRF antagonist mode; activity change, negative = inhibition: at 92.4 µM (top of the series) unless noted
UniProt P14416, sequence (P14416 whole entry, looked up): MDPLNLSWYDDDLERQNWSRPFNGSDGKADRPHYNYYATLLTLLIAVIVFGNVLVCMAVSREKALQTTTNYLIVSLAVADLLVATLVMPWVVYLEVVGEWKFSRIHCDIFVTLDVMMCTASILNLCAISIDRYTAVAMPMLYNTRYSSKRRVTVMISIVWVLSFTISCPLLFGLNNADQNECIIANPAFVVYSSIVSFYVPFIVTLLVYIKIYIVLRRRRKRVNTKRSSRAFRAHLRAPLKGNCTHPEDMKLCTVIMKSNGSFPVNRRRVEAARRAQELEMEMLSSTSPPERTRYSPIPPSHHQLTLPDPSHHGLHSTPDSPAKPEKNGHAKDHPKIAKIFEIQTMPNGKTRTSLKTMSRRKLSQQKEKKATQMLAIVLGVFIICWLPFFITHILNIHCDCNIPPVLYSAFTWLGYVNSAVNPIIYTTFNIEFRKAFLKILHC
Description: National Center for Advancing Translational Sciences [NCATS]
Division of Preclinical Innovation [DPI]
U.S. Environmental Protection Agency [EPA]
National Institutes of Environmental Health Sciences [NIEHS]
National Toxicology Program [NTP]
U.S. Food and Drug Administration [FDA]
DRD2 is the D2 subtype of the dopamine receptor, which is coupled to Gi subtype of G protein-coupled receptor. This G protein-coupled receptor inhibits adenylyl cyclase activity. The DRD2-HEK293 cell line stably expressing D2 dopamine receptor can be used for screening agonists and antagonists of interactions between D2 and its ligands. The Hek293-DRD2 cAMP assay is based on HTRF technology. It measures changes of cAMP accumulation in response to Gi coupled GPCR activation or inhibition.
Tox21 Assay Protocol Summary:
DRD2-Hek293 cells were dispensed at 600 cells/3uL/well in 1536-well white plates using a Multidrop Dispenser. After the assay plates were incubated at a 37 C/5% CO2 incubator for 24 h, 1 uL of Ro20-1724 at final concentration of 0.1 mM was transferred to the assay plate by a Flying Reagent Dispenser. Following Ro20-1724 addition, 23 nL of compound dissolved in DMSO, positive controls or DMSO only was added to the assay plates via Wako pintool station. The assay plates were incubated at room temperature for 10 min. Next, 1 uL of mixture of NKH477 (final concentration at 200 nM) and quinpirole (final concentration at 12 nM) was added into the plates. After the assay plates were incubated at room temperature for an additional 30 min, 2.5 ul/well of cAMP-d2 and 2.5 ul/well of anti-cAMP-cryptate were added respectively into the assay plates using a Flying Reagent Dispenser. The plates were incubated at room temperature for 1 h. The fluorescence intensity in the plates was measured at 340 nm excitation and 665 & 620 nm emission by an Envision plate reader.
% is scaled to controls: 0 for no effect and ±100 for the full control effect; potency is read from the fitted curve at half-maximal effect; tags tell the direction and shape of the fitted curve.

| SMILES | Potency | activity change, negative = inhibition |
| --- | --- | --- |
| CCCCC/C=C\C/C=C\CCCCCCCC(=O)OC | inconclusive: 30.6 µM [inhibitor, partial curve, poor fit] |  |
| C=CC[N+](C)(C)CC=C | inconclusive: 69.1 µM [inhibitor, partial curve, poor fit] |  |
| CCCCCCCC/C=C\CCCCCCCC(=O)OC(CO)CO |  | inconclusive: -16% |
| Nc1ccc(O)cc1 | inconclusive: 63.5 µM [cytotoxic] |  |
| OC1CCCc2ccccc21 (stereo not given) |  | inactive: 0.286% |
| CN1CCCC(CC2c3ccccc3Sc3ccccc32)C1 (stereo not given) |  | inconclusive: -22.3% [at 42.5 µM] |
| CC(COc1ccccc1)NC(C)C(O)c1ccc(O)cc1 (stereo not given) | active: 23.7 µM |  |
| NC(=O)CCCCC1CCSS1 (stereo not given) |  | inactive: 3.35% [at 42.5 µM] |
| CCCCCCCCOc1ccccc1C(=O)Nc1ccc(C(=O)OCC[N+](C)(CC)CC)cc1 | inconclusive: 33.5 µM [inhibitor, single point] |  |
| CCN(Cc1cccc(S(=O)(=O)O)c1)c1ccc(C(=C2C=CC(=[N+](CC)Cc3cccc(S(=O)(=O)O)c3)C=C2)c2ccc(O)cc2S(=O)(=O)[O-])cc1 | inconclusive: 5.24 µM [cytotoxic, partial curve] |  |
| O=C(c1ccc(OCCN2CCCCC2)cc1)c1c(-c2ccc(O)cc2)sc2cc(O)ccc12 | inconclusive: 21.7 µM [inhibitor] | inconclusive: -3.82% |
| Nc1ccc(N)c(Cl)c1 | inconclusive: 61 µM [cytotoxic, single point] and inconclusive: 54.5 µM [cytotoxic] |  |
| CCOC(C)OCC |  | inactive: -0.842% |
| CC(C)(C)CC(C)(C)c1ccccc1O | active: 61.4 µM |  |
| O=C(O[C@@H]1Cc2c(O)cc(O)cc2O[C@@H]1c1cc(O)c(O)c(O)c1)c1cc(O)c(O)c(O)c1 | inconclusive: 61.3 µM [falling, partial curve, poor fit] |  |
| C/C=C(\C)C(=O)OCCc1ccccc1 |  | inactive: -0.0442% |
| C=C[C@@]1(C)CC(=O)[C@]2(O)[C@@]3(C)[C@@H](O)CCC(C)(C)[C@@H]3[C@H](O)[C@H](OC(C)=O)[C@@]2(C)O1 | active: 30.6 nM and active: 944 nM |  |
| CC(O)CNCC(C)O (stereo not given) | inactive |  |
| CCCC1CCOC(C)S1 (stereo not given) |  | inconclusive: 3% |

| SMILES | Potency | activity change, negative = inhibition |
| --- | --- | --- |
| CCCCCCCOC(=O)c1ccc(O)cc1 | inconclusive: 68.6 µM [inhibitor, single point] |  |
| Cc1ccc(O)c(-n2nc3ccccc3n2)c1 |  | inconclusive: -7.5% |
| CN(C)CCCN1c2ccccc2CCc2ccccc21 | inconclusive: 48.6 µM [inhibitor, partial curve] |  |
| CC(C)CCC(=O)CCC(C)C |  | inactive: -0.0197% |
| NS(=O)(=O)c1cc(-c2nn[nH]n2)c(NCc2cccs2)cc1Cl |  | inconclusive: 3.72% [at 42.5 µM] |
| CN(C)CCOc1ccc(/C(=C(/CCCl)c2ccccc2)c2ccccc2)cc1 | active: 57.2 µM |  |
| CC1(C)Cc2cccc(N)c2O1 | inconclusive: 24.3 µM [inhibitor, full curve, poor fit] |  |
| Nc1ccc(C(=O)Oc2ccccc2)c(O)c1 |  | inactive: 1.12% [at 42.5 µM] |
| CCC(O)OCCCOC (stereo not given) |  | inconclusive: -53.5% |
| CC(C)(C)c1cc(CCC(=O)NN)cc(C(C)(C)C)c1O |  | inconclusive: -26.8% |
| CN(C/C=C/C#CC(C)(C)C)Cc1cccc2ccccc12 |  | inconclusive: -27.4% [at 42.5 µM] |
| O=C(O)c1ccc(-n2nc(-c3ccccc3O)nc2-c2ccccc2O)cc1 |  | inactive: -0.793% [at 42.5 µM] |
| CC(=O)OC(C)(C)C1CC=C(C)CC1 (stereo not given) |  | inconclusive: 22.6% |
| CN(C)CCCN1c2ccccc2Sc2ccc(C(F)(F)F)cc21 | active: 0.0596 µM |  |
| O=C(N/N=C/c1ccccc1O)c1ccncc1 |  | inconclusive: -19.5% [at 42.5 µM] |
| CCC(CO)(CO)[N+](=O)[O-] |  | inconclusive: 7.11% |
| O=C1NCC2(CCN(CCc3ccccc3)CC2)O1 |  | inactive: -25.1% [at 42.5 µM] |
| Cc1cc(N)c2cc(NC(=O)Nc3ccc4nc(C)cc(N)c4c3)ccc2n1 | inconclusive: 33.5 µM [inhibitor, single point] |  |
| CCN(Cc1ccncc1)C(=O)C(CO)c1ccccc1 (stereo not given) |  | inconclusive: -20.3% [at 42.5 µM] |

same assay, conditions: HEK293-DRD2 cAMP HTRF antagonist mode; at 42.5 µM (top of the series)

| SMILES | activity change, negative = inhibition |
| --- | --- |
| O=C(c1ccc(OCCN2CCCCC2)cc1)c1c(-c2ccc(O)cc2)sc2cc(O)ccc12 | inactive: -8.99% |

Reference: PubChem BioAssay (Tox21)
